# Experimental data reported in the supplement of paper PMC3334620.
# The full ranking holds about 33,000 sequences; the median of “E-score (-0.5 to 0.5)” is about -0.036, and the highest 2% start at about 0.37. The list shows a part of the results.
# Molecular target: T1, Yer064c (UniProt P40041)
# T1 sequence: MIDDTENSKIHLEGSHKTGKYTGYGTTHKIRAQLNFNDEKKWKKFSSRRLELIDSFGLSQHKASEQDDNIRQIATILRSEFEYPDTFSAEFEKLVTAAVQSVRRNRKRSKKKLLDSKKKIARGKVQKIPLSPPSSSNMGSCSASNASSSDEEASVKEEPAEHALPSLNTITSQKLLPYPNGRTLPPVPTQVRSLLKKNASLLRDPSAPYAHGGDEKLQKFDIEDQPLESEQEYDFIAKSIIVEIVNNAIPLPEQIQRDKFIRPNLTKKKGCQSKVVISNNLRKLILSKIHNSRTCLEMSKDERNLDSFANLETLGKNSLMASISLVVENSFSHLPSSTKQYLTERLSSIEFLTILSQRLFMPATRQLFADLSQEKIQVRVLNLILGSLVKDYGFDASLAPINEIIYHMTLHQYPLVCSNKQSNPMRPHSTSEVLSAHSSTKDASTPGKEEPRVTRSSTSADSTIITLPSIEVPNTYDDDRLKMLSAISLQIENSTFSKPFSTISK
# Experiment: PBM E-score (8-mer binding enrichment) (E-score (-0.5 to 0.5)); higher = stronger / more preferred TF binding; most listed sequences are background and not binding sites
# Details: protein concentration: 200 nM; construct: GST-full length
# Summary of the method: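 Yeast transcription factors, full-length or as DNA-binding domains, were expressed with a GST tag using PURExpress in vitro transcription/translation. At about 100-200 nM they were applied to universal all-10-mer Agilent arrays, double-stranded by primer extension on fresh or once-stripped slides. Fluorescent anti-GST detected bound protein, and masliner normalised the scans. E-scores for ungapped eight-base words, pooled with reverse complements, came from the Universal PBM Analysis Suite.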
row,Sequence,PBM E-score
1,CTCGGTCA,-0.149
2,TCAGGAAA,0.128
3,ATATTGGA,0.032
4,GATTACGC,0.268
5,TAGTGGGA,-0.154
6,ACCCGGGG,-0.195
7,AGAGCGAG,0.0399
8,CCTACGCC,-0.174
9,ACACACCA,0.0454
10,GTAGACGA,0.094
11,ATCACGCC,0.267
12,GCATCATA,0.0926
13,ACATAGGT,0.0651
14,ATAGAAGA,-0.171
15,GACCAACA,0.0213
16,GACGATAC,-0.214
17,TCATAGAA,0.194
18,ACACTTGA,0.263
19,CCACATAC,-0.0976
20,AGAGCCCC,-0.302
21,GAAAGTAC,0.0207
22,ATGGCATC,-0.139
23,GGAGCGAA,0.0438
24,TATTAAGA,0.145
25,GTATTTGA,0.134
26,ATCTATTC,0.141
27,AGATTTCA,-0.0383

row,Sequence,PBM E-score
1,ACGGGATG,-0.159
2,CGTCGCAC,-0.186
3,CCTGTTCC,-0.162
4,GGGCAGTA,-0.0703
5,GGGTCACA,0.00589
6,CGGTACGC,-0.151
7,GAACCACA,0.171
8,CGCCATAA,-0.0011
9,GAGAACAC,-0.0624
10,TCGAAGCA,-0.117
11,ACCCAGAT,-0.0932
12,ATAAGTCC,0.161
13,CGGACGTC,0.0216
14,GACGTGAC,0.188
15,AGAATGTC,0.0445
16,TACGGACA,0.0661
17,ATCTTGTA,0.0633
18,ACACAATA,-0.0198
19,TACACGCA,-0.129
20,TAAGCCAA,-0.0148
21,GACAGTGA,0.132
22,GAAAGCGA,-0.169
23,AACTGCTA,0.0473
24,AACTAAGA,0.137
25,GATCTAGA,0.0153
26,ACATCCAT,-0.125
27,AGCCTCTG,-0.205

row,Sequence,PBM E-score
1,CAGGTGTC,0.0065
2,CCCAAAGA,-0.0474
3,CGCCAAAC,-0.0559
4,GGAGGGAA,-0.248
5,GAACCTAA,-0.112
6,CAGACAGG,-0.206
7,AGATTGGA,-0.101
8,CCTATACC,-0.227
9,GGCGATCA,-0.108
10,GAAGATGC,-0.319
11,AATACAAA,0.173
12,ACGCGGTG,-0.199
13,AAGGGCTG,-0.261
14,CCGATATC,-0.075
15,AATTGCCA,-0.111
16,ATTGTCCG,0.0266
17,CCATAGCG,-0.0764
18,TATCACCA,-0.0277
19,AGCCAGCT,0.0903
20,AACACCTC,-0.065
21,CGCATCGA,-0.133
22,CTCGATGA,0.137
23,GGTACAAA,0.1
24,TAAAGCAA,0.036
25,CATTGCAA,-0.00565
26,CTCGCCCA,0.0251
